# Experimental data as given in PubChem BioAssay AID1259400 (National Center for Advancing Translational Sciences (NCATS), 2018).
# In all, about 350,000 compounds went through this assay and about 2,100 (0.6%) were called active. Inconclusive results, whose numbers are uncertain, are shown with a selection of clear calls.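 How the source made its calls: active means activity change of -60% or lower, but not beyond a set lower limit; inconclusive means change between -60% and -40%, or beyond the set limit; inactive means change above -40%.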
# Molecular target: Relaxin receptor 1 (Homo sapiens) (UniProt Q9HBX9)
# UniProt Q9HBX9, sequence (Q9HBX9 whole entry, looked up): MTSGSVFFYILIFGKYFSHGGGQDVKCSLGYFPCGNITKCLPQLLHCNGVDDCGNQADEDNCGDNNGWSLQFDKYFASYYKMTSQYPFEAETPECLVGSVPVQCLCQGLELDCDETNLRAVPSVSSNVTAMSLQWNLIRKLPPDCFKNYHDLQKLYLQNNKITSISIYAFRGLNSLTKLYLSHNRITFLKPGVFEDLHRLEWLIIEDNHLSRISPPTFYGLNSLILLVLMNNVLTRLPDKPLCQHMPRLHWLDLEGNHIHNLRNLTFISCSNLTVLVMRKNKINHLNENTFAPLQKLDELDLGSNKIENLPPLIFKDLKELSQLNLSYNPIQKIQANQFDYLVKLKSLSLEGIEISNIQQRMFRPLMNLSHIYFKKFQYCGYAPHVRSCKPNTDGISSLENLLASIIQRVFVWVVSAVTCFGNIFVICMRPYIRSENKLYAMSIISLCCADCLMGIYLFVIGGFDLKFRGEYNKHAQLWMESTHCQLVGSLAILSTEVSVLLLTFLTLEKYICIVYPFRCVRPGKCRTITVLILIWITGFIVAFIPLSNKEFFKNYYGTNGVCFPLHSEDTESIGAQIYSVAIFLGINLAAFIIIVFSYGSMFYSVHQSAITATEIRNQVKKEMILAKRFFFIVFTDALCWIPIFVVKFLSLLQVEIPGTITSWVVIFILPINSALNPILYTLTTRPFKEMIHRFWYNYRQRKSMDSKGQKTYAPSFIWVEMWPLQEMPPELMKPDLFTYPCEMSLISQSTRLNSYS
# Assay: qHTS Assay for Antagonists of the Relaxin Receptor RXFP1
# Conditions: HEK293-RXFP1, relaxin-stimulated cAMP HTRF, 30 min; at 57.5 µM; hits give low values
# On the % scale 0 is the no-effect control and ±100 the full control effect.
row,Structure (SMILES),"activity change, negative = inhibition"
1,CN(c1ccc(OCC(=O)N2CCCC2)cc1)S(=O)(=O)c1ccc(Cl)cc1,inactive: 3.05%
2,O=c1c(-c2cnn(-c3ccccc3)c2)coc2cc(O)ccc12,inconclusive: -51.5%
3,CCCCCNS(=O)(=O)c1ccc(N2CCCCS2(=O)=O)cc1,inactive: -1.99%
4,OCC1(Cc2ccccc2)CCN(C2CCN(c3ccc(F)c(F)c3)CC2)CC1,inconclusive: -45.7%
5,CCCc1ccc(OCc2ccc(C(=O)N3CCN(c4ccccn4)CC3)o2)c(OC)c1,active: -62.6%
6,Cc1cccc(OCC(=O)NNc2c3ccccc3nc3ccccc23)c1,inconclusive: -50.9%
7,Cc1cc(Nc2ccc(C(C)C)cc2)nc(-n2nc(C)cc2C)n1,inconclusive: -47.5%
8,CCOC(=O)C1=C(O)/C(=C/c2cccc(OC)c2O)N=C1C,active: -63.5%
9,CN1C(=O)/C(=C/c2ccc(OCc3ccccc3F)cc2)NC1=S,inactive: 7.63%
10,Cc1ccc(OCC(=O)N(Cc2ccco2)Cc2ccco2)cc1C,active: -60.4%
11,Cc1ccc(C(=O)Nc2ccccc2C(=O)O)cc1S(=O)(=O)N1CCCCCC1,active: -102%
12,COC(=O)c1nn(-c2ccc(OC)cc2)c(=O)cc1NN,inactive: -3.65%
13,O=C(NCCc1csc(-c2ccc(F)cc2)n1)c1cccs1,active: -60.9%
14,Cc1ccc(CNC(=O)c2cnc3c(-c4ccccc4)c(C)nn3c2C)o1,inconclusive: -42.6%
15,N#C/C(=C1/SC[C@@H](c2ccc(Cl)cc2Cl)S1)n1ccnc1,inconclusive: -42.5%
16,CCOC(=O)c1cc(-c2ccccc2)n(CCC(=O)Nc2cc(C)cc(C)c2)c1C,inconclusive: -52.2%
17,Clc1ccc(Cl)c(OCCCCN2CCCCC2)c1,inactive: -3.61%
18,O=C(/C(=C/O)N=Nc1ccccc1)c1ccco1,inconclusive: -52.5%
19,COc1ccc(NC(=O)Cn2c(=O)n(Cc3ccccc3)c(=O)c3oc4ccccc4c32)cc1Cl,inactive: -12.6%
20,Cc1cc(N)n(-c2ncnc3scc(-c4ccc(Cl)cc4)c23)n1,inactive: -14.9%
21,O=C(Nc1nc(-c2cccs2)c(C(=O)C(F)(F)F)s1)c1ccco1,inactive: 1.34%
22,COc1ccc(CC(=O)Nc2nc(-c3ccc(OC)c(OC)c3)cs2)cc1OC,inactive: -26.8%
23,Cc1nnc2n(c1=O)N=C(c1ccc(Cl)cc1)CS2,inconclusive: -42%

row,Structure (SMILES),"activity change, negative = inhibition"
1,CCOc1ccc(-n2c(=O)c3c(C)c(C)sc3n(CC(=O)N3CCC(C)CC3)c2=O)cc1,inactive: 0.793%
2,COc1ccc(N2CCN(C(c3cccs3)c3nnnn3C3CCCC3)CC2)cc1 (stereo not given),inactive: -9.67%
3,Nc1nc(Nc2ccccc2Cl)cc(=O)[nH]1,inconclusive: -42.5%
4,Cc1cc(C(=O)OCC(=O)Nc2c(F)cccc2F)c(C)n1-c1ccccc1,inactive: -16.5%
5,N#Cc1c(Sc2ncc(C(F)(F)F)cc2Cl)nsc1C/C=N\OCc1c(F)cccc1Cl,inconclusive: -53.1%
6,COc1cccc(Nc2n[nH]c(=S)s2)c1,inconclusive: -53%
7,CCOc1ccc(C(=O)Nc2nnc(NC(=S)Nc3ccccc3)s2)cc1,inconclusive: -51.9%
8,CCOC(=O)c1sc(NC(=O)CCC(=O)O)nc1C,active: -85.2%
9,CN1CCN(C(CNC(=O)Nc2ccc(Cl)cc2)c2ccc(F)cc2)CC1 (stereo not given),inactive: 11.3%
10,O=C(O)C1CC=CCC1C(=O)NCCc1csc(-c2ccccc2)n1 (stereo not given),inconclusive: -41.9%
11,Cc1ccc(S(=O)(=O)N2CCC(C(N)=O)CC2)cc1C(=O)NC1CCCCC1,inconclusive: -44.6%
12,CSc1ncc(Cl)c(C(=O)Nc2nnc(SC)s2)n1,inactive: 11.5%
13,Cc1ccc2c(c1)N(CC(=O)Nc1ccccc1F)C(=O)C(C)O2 (stereo not given),inconclusive: -40.8%
14,O=S(=O)(Nc1cccc(F)c1)c1ccc2[nH]c3c(c2c1)CCCCC3,inactive: -21.4%
15,COCCN1CCN(Cc2cn(C)nc2-c2cccc(Cl)c2)CC1,inactive: 3.83%
16,CCOC(=O)c1c(C)oc2ncnc(N3CCN(c4ccccc4)CC3)c12,inconclusive: -46.2%
17,CC(=O)C1=C(c2ccc(Cl)c(Cl)c2)N(C(C)=O)n2cnnc2S1,active: -83.3%
18,CC(=O)NC1=NN(C(C)=O)C(C)(CC(=O)OC(C)(C)C)S1 (stereo not given),inconclusive: -48.3%
19,COc1ccccc1CNC(=O)CSCc1nc(-c2ccc(OC)c(OC)c2)oc1C,inactive: -21%
20,Cc1cc(Cl)ccc1OCC(=O)N1CCC(c2nc3ccccc3o2)CC1,inconclusive: -45.7%
21,COc1ccccc1C(=O)Nc1c[nH]c(=O)[nH]c1=O,inactive: -1.08%
22,Cc1cccc(NC(=O)COC(=O)CCc2ccc(S(=O)(=O)N3CCOCC3)cc2)c1C,inconclusive: -42.1%
23,Cc1noc(C)c1C(=O)Nc1nc(-c2ccc([N+](=O)[O-])cc2)cs1,inconclusive: -41.7%

row,Structure (SMILES),"activity change, negative = inhibition"
1,Nc1cc2c(cc1O)CCCC2,inconclusive: -50.7%
2,O=C(CCS(=O)(=O)c1nc(-c2cccs2)cc(C(F)(F)F)n1)Nc1ccc(F)c(Cl)c1,active: -60.2%
3,Cc1c(Cl)cc(C(C)C)c(O)c1CN1CCOCC1,inconclusive: -55.5%
4,O=c1c2ccccc2[nH]c(=S)n1CCC1=CCCCC1,inconclusive: -51.5%
5,O=C(CC1SC(=O)N(c2ccccc2)C1=O)Nc1cccc2ccccc12 (stereo not given),inconclusive: -58.2%
6,Cc1cc(-c2ccccc2)nc(N/N=C/c2ccc(O)cc2)n1,active: -77.3%
7,CC(C)CCOc1ccccc1Cn1c(=O)sc2ccccc21,inconclusive: -54.7%
8,CC(=O)Nc1cccc(NC(=O)CSc2ncc(C(=O)Nc3ccc(F)cc3)c(=O)n2C)c1,inconclusive: -59.4%
9,CCc1ccc(C(=O)NC(Cc2c[nH]c3ccccc23)C(=O)OCC(=O)c2ccc(Br)cc2)cc1 (stereo not given),inactive: -19.9%
10,CC(Oc1ccccc1)C(=O)N=Nc1c(O)[nH]c2ccc([N+](=O)[O-])cc12 (stereo not given),active: -83.8%
11,Cc1nn(C)c(Cl)c1CN1CCC(CO)(CCOc2ccccc2)CC1,inactive: -6.11%
12,CC(C)c1ccc(C=NNc2ccc([N+](=O)[O-])cn2)cc1,inconclusive: -48.6%
13,CC1CC(=O)N(c2ccc(C(C)C)cc2)C(=O)C1,inactive: 3.97%
14,CCCCCC1CCC(c2n[nH]c(=S)n2C)CC1 (stereo not given),active: -64.4%
15,CC(C)(C)c1cc(C(F)(F)F)n2ncc(-c3ccccc3)c2n1,inconclusive: -55.4%
16,N#C/C(=C\c1c(Oc2ccc(Br)cc2)nc2ccccn2c1=O)c1nc2ccccc2s1,inconclusive: -51.8%
17,Cc1ccc(C(=O)Nc2ccc(C)c(S(=O)(=O)N(C)C)c2)s1,inconclusive: -43.3%
18,CCOC(=O)c1ccccc1NC(=O)N1CCOc2ccc(Cl)cc21,inconclusive: -47.3%
19,Cc1ccc2c(c1)-c1c(c(C(=O)N3CCN(c4cc(Cl)ccc4C)CC3)nn1C)CS2,inconclusive: -42.3%
20,NC(N)=N/N=C/c1cccc([N+](=O)[O-])c1O,inconclusive: -42.9%
21,COc1c2c(nc3occc13)C(CC=C(C)C)(OC)C(=O)C=C2 (stereo not given),active: -62.5%
22,O=C(NNC(=O)c1ccc[nH]1)Nc1cccc(C(F)(F)F)c1,inconclusive: -56.2%
23,CSc1sc(C)cc1C=O,inactive: -0.203%

row,Structure (SMILES),"activity change, negative = inhibition"
1,O=C(c1ccc(F)cc1)C1CCN(Cc2cn[nH]c2-c2ccc(F)cc2)CC1,inconclusive: -50.7%
2,CC(C)Cc1ccc(C(C)C(N)=NCCc2ccccc2)cc1 (stereo not given),inconclusive: -59.7%
3,Cc1cccc(N(C)C(=S)Oc2ccc3ccccc3c2)c1,active: -71.5%
4,O=S(=O)(N/N=C1/CC(c2ccccc2)Oc2ccccc21)c1ccc(Br)cc1 (stereo not given),inconclusive: -40.9%
5,CCOc1ccccc1Oc1coc2cc(OC(=O)c3ccco3)ccc2c1=O,inconclusive: -46.6%
6,COc1ccc(/C=C/CN2CCCC(CO)(Cc3cccc(Cl)c3)C2)cc1 (stereo not given),active: -69.3%
7,CC(C)(C)c1nnc(NS(=O)(=O)c2ccccc2)s1,inactive: -4.4%
8,O=C(Cc1cccs1)Nc1nc(-c2ccc(F)c(F)c2)cs1,inconclusive: -43.8%
9,CCOC(=O)c1cc(-c2ccc(F)cc2)n(CCC(=O)NC2CCCCC2)c1C,inconclusive: -44.8%
10,Nc1c(C(=O)NCc2ccccc2)nnn1Cc1cccc(Br)c1,inactive: -1.63%
11,CCOc1cc(C(=O)NCCc2ccc(S(N)(=O)=O)cc2)cc(OCC)c1OCC,inactive: 0.819%
12,COc1ccc2c(c1)c(CC(=O)Nc1ccccc1OC)c(C)n2C(=O)c1ccc(Cl)cc1,inconclusive: -49.5%
13,CCc1ccc2oc(=O)cc(CN3CCCCC3C)c2c1 (stereo not given),inconclusive: -45.3%
14,Cc1cc(C)c(NC(=O)COC(=O)Cc2cccs2)c(C)c1,active: -109%
15,COc1ccccc1C1CCN(c2ccc([N+](=O)[O-])cn2)CC1,inconclusive: -45.8%
16,O=C(CN1C(=O)C2CCCCC2C1=O)Nc1nc(-c2ccc(F)cc2)cs1 (stereo not given),inconclusive: -48.5%
17,COc1ccc(N2CCN(C(CNS(=O)(=O)c3c(C)cc(C)cc3C)c3ccco3)CC2)cc1 (stereo not given),inactive: -21.6%
18,COc1cccc2sc(N(CCCN(C)C)C(=O)c3ccc(S(=O)(=O)N4CCCc5ccccc54)cc3)nc12,active: -87.7%
19,CCN(CC)c1ccc2nc3ccc(N)cc3[n+](-c3ccccc3)c2c1,inconclusive: -51%
20,CC1CCN(C(=O)CSc2nc3c(c(=O)n2C)SCC3)CC1,inactive: 0.597%
21,COc1ccc2oc(C(=O)OCC(=O)Nc3ccc(NC(C)=O)cc3)c(C)c2c1,inconclusive: -42%
